# Data as given in the supplement of paper PMC8728848.
# The list shows a part of the results.
# Experiments:
# Assay in all cases: glycan array binding signal (z-score within array); higher = stronger binding
# Settings in all cases: glycan notation: IUPAC condensed, linker removed
# [1] = biological target: Neu5Ac(a2-3)Gal(b1-3)[Fuc(a1-4)]GlcNAc
# Summary of the method: (§1)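 The Consortium for Functional Glycomics database supplied 3228 glycan arrays, of which those lacking an available protein sequence were dropped. The binding signal, a within-array Z-score, was averaged across arrays of the same protein sequence and across linkers. Negative scores can be read as non-binding.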
# [2] = biological target: Neu5Ac(a2-3)Gal(b1-3)[Fuc(a1-4)]GlcNAc(b1-3)Gal(b1-3)[Fuc(a1-4)]GlcNAc
# Summary of the method: as §1
# [3] = biological target: Neu5Ac(a2-3)Gal(b1-3)[Fuc(a1-4)]GlcNAc(b1-3)Gal(b1-4)[Fuc(a1-3)]GlcNAc
# Summary of the method: as §1
# [4] = biological target: Neu5Ac(a2-3)Gal(b1-3)[GlcNAc(b1-6)]GalNAc
# Summary of the method: as §1
# [5] = biological target: Neu5Ac(a2-3)Gal(b1-3)[Neu5Ac(a2-6)]GalNAc
# Summary of the method: as §1
# [6] = biological target: Neu5Ac(a2-3)Gal(b1-3)[Neu5Ac(a2-6)]GlcNAc(b1-3)[Fuc(a1-3)[Gal(b1-4)]GlcNAc(b1-6)]Gal(b1-4)Glc
# Summary of the method: as §1
# [7] = biological target: Neu5Ac(a2-3)Gal(b1-3)]Neu5Ac(a2-3)Gal(b1-4)]GlcNAc
# Summary of the method: as §1
# Neu5Ac(a2-3)Gal(b1-4)Glc = biological target: Neu5Ac(a2-3)Gal(b1-4)Glc
# Summary of the method: as §1
# [8] = biological target: Neu5Ac(a2-3)Gal(b1-4)GlcNAc
# Summary of the method: as §1
# [9] = biological target: Neu5Ac(a2-3)Gal(b1-4)GlcNAc(b1-2)Man
# Summary of the method: as §1
# [10] = biological target: Neu5Ac(a2-3)Gal(b1-4)GlcNAc(b1-2)Man(a1-3)[GlcNAc(b1-4)][Neu5Ac(a2-3)Gal(b1-4)GlcNAc(b1-2)Man(a1-6)]Man(b1-4)GlcNAc(b1-4)GlcNAc
# Summary of the method: as §1
# [11] = biological target: Neu5Ac(a2-3)Gal(b1-4)GlcNAc(b1-2)Man(a1-3)[Neu5Ac(a2-3)Gal(b1-4)GlcNAc(b1-2)Man(a1-6)]Man(b1-4)GlcNAc(b1-4)GlcNAc
# Summary of the method: as §1
# [12] = biological target: Neu5Ac(a2-3)Gal(b1-4)GlcNAc(b1-2)Man(a1-3)[Neu5Ac(a2-3)Gal(b1-4)GlcNAc(b1-2)Man(a1-6)]Man(b1-4)GlcNAc(b1-4)[Fuc(a1-6)]GlcNAc
# Summary of the method: as §1
# [13] = biological target: Neu5Ac(a2-3)Gal(b1-4)GlcNAc(b1-2)Man(a1-3)[Neu5Ac(a2-6)Gal(b1-4)GlcNAc(b1-2)Man(a1-6)]Man(b1-4)GlcNAc(b1-4)GlcNAc
# Summary of the method: as §1
# [14] = biological target: Neu5Ac(a2-3)Gal(b1-4)GlcNAc(b1-2)[Neu5Ac(a2-3)Gal(b1-4)GlcNAc(b1-4)]Man(a1-3)[GlcNAc(b1-4)][Neu5Ac(a2-3)Gal(b1-4)GlcNAc(b1-2)[Neu5Ac(a2-3)Gal(b1-4)GlcNAc(b1-6)]Man(a1-6)]Man(b1-4)GlcNAc(b1-4)GlcNAc
# Summary of the method: as §1
# [15] = biological target: Neu5Ac(a2-3)Gal(b1-4)GlcNAc(b1-2)[Neu5Ac(a2-3)Gal(b1-4)GlcNAc(b1-4)]Man(a1-3)[GlcNAc(b1-4)][Neu5Ac(a2-3)Gal(b1-4)GlcNAc(b1-4)Man(a1-6)]Man(b1-4)GlcNAc(b1-4)GlcNAc
# Summary of the method: as §1
# [16] = biological target: Neu5Ac(a2-3)Gal(b1-4)GlcNAc(b1-2)[Neu5Ac(a2-3)Gal(b1-4)GlcNAc(b1-6)]Man(a1-6)[Neu5Ac(a2-3)Gal(b1-4)GlcNAc(b1-2)Man(a1-3)]Man(b1-4)GlcNAc(b1-4)GlcNAc
# Summary of the method: as §1
# [17] = biological target: Neu5Ac(a2-3)Gal(b1-4)GlcNAc(b1-2)[Neu5Ac(a2-3)Gal(b1-4)GlcNAc(b1-6)]Man(a1-6)[Neu5Ac(a2-3)Gal(b1-4)GlcNAc(b1-2)Man(a1-3)][GlcNAc(b1-4)]Man(b1-4)GlcNAc(b1-4)GlcNAc
# Summary of the method: as §1
# [18] = biological target: Neu5Ac(a2-3)Gal(b1-4)GlcNAc(b1-3)Gal
# Summary of the method: as §1
# [19] = biological target: Neu5Ac(a2-3)Gal(b1-4)GlcNAc(b1-3)Gal(b1-3)GlcNAc
# Summary of the method: as §1
# [20] = biological target: Neu5Ac(a2-3)Gal(b1-4)GlcNAc(b1-3)Gal(b1-4)GlcNAc
# Summary of the method: as §1
# [21] = biological target: Neu5Ac(a2-3)Gal(b1-4)GlcNAc(b1-3)Gal(b1-4)GlcNAc(b1-2)Man(a1-3)[Neu5Ac(a2-3)Gal(b1-4)GlcNAc(b1-3)Gal(b1-4)GlcNAc(b1-2)Man(a1-6)]Man(b1-4)GlcNAc(b1-4)GlcNAc
# Summary of the method: as §1
# [22] = biological target: Neu5Ac(a2-3)Gal(b1-4)GlcNAc(b1-3)Gal(b1-4)GlcNAc(b1-3)Gal(b1-4)GlcNAc
# Summary of the method: as §1
# [23] = biological target: Neu5Ac(a2-3)Gal(b1-4)GlcNAc(b1-3)Gal(b1-4)GlcNAc(b1-3)Gal(b1-4)GlcNAc(b1-2)Man(a1-3)[Neu5Ac(a2-3)Gal(b1-4)GlcNAc(b1-3)Gal(b1-4)GlcNAc(b1-3)Gal(b1-4)GlcNAc(b1-2)Man(a1-6)]GalNAc
# Summary of the method: as §1
# [24] = biological target: Neu5Ac(a2-3)Gal(b1-4)GlcNAc(b1-3)Gal(b1-4)GlcNAc(b1-3)GalNAc
# Summary of the method: as §1
# [25] = biological target: Neu5Ac(a2-3)Gal(b1-4)GlcNAc(b1-3)Gal(b1-4)GlcNAc(b1-3)[Neu5Ac(a2-3)Gal(b1-4)GlcNAc(b1-3)Gal(b1-4)GlcNAc(b1-6)]GalNAc
# Summary of the method: as §1
# [26] = biological target: Neu5Ac(a2-3)Gal(b1-4)GlcNAc(b1-3)Gal(b1-4)GlcNAc(b1-6)[Gal(b1-3)]GalNAc
# Summary of the method: as §1
# [27] = biological target: Neu5Ac(a2-3)Gal(b1-4)GlcNAc(b1-3)Gal(b1-4)[Fuc(a1-3)]GlcNAc
# Summary of the method: as §1
# [28] = biological target: Neu5Ac(a2-3)Gal(b1-4)GlcNAc(b1-3)GalNAc
# Summary of the method: as §1
# [29] = biological target: Neu5Ac(a2-3)Gal(b1-4)GlcNAc(b1-3)[Neu5Ac(a2-3)Gal(b1-4)GlcNAc(b1-6)]GalNAc
# Summary of the method: as §1
# [30] = biological target: Neu5Ac(a2-3)Gal(b1-4)GlcNAc(b1-6)GalNAc
# Summary of the method: as §1
# [31] = biological target: Neu5Ac(a2-3)Gal(b1-4)GlcNAc(b1-6)[Gal(b1-3)]GalNAc
# Summary of the method: as §1
# [32] = biological target: Neu5Ac(a2-3)Gal(b1-4)GlcNAc(b1-6)[Neu5Ac(a2-3)Gal(b1-3)]GalNAc
# Summary of the method: as §1
# [33] = biological target: Neu5Ac(a2-3)Gal(b1-4)GlcNAc6S
# Summary of the method: as §1
# [34] = biological target: Neu5Ac(a2-3)Gal(b1-4)[Fuc(a1-3)]GlcNAc
# Summary of the method: as §1
# [35] = biological target: Neu5Ac(a2-3)Gal(b1-4)[Fuc(a1-3)]GlcNAc(b1-2)Man
# Summary of the method: as §1
# [36] = biological target: Neu5Ac(a2-3)Gal(b1-4)[Fuc(a1-3)]GlcNAc(b1-3)Gal
# Summary of the method: as §1
# [37] = biological target: Neu5Ac(a2-3)Gal(b1-4)[Fuc(a1-3)]GlcNAc(b1-3)Gal(b1-4)GlcNAc
# Summary of the method: as §1
# [38] = biological target: Neu5Ac(a2-3)Gal(b1-4)[Fuc(a1-3)]GlcNAc(b1-3)Gal(b1-4)[Fuc(a1-3)]GlcNAc(b1-3)Gal(b1-4)[Fuc(a1-3)]GlcNAc
# Summary of the method: as §1
# [39] = biological target: Neu5Ac(a2-3)Gal(b1-4)[Fuc(a1-3)]GlcNAc(b1-3)GalNAc
# Summary of the method: as §1
# [40] = biological target: Neu5Ac(a2-3)Gal(b1-4)[Fuc(a1-3)]GlcNAc(b1-6)[Gal(b1-3)]GalNAc
# Summary of the method: as §1
# [41] = biological target: Neu5Ac(a2-3)Gal(b1-4)[Fuc(a1-3)]GlcNAc(b1-6)[Neu5Ac(a2-3)Gal(b1-3)]GalNAc
# Summary of the method: as §1
# [42] = biological target: Neu5Ac(a2-3)Gal(b1-4)[Fuc(a1-3)]GlcNAc6S
# Summary of the method: as §1
# [43] = biological target: Neu5Ac(a2-3)Gal6S(b1-4)GlcNAc
# Summary of the method: as §1
# [44] = biological target: Neu5Ac(a2-3)Gal6S(b1-4)[Fuc(a1-3)]GlcNAc
# Summary of the method: as §1
binder,measurement,setting,value
SBD-G4S3-SBD (protein) MASIPSSASVQLDSYNYDGSTFSGKIYVKNIAYSKKVTVVYADGSDNWNNNGNIIAASFSGPISGSNYEYWTFSASVKGIKEFYIKYEVSGKTYYDNNNSANYQVSTGGGGSGGGGSGGGGSEFASIPSSASVQLDSYNYDGSTFSGKIYVKNIAYSKKVTVVYADGSDNWNNNGNIIAASFSGPISGSNYEYWTFSASVKGIKEFYIKYEVSGKTYYDNNNSANYQVST,glycan array binding signal (z-score),[1],-0.409
same,glycan array binding signal (z-score),[2],-0.35
same,glycan array binding signal (z-score),[3],-0.326
same,glycan array binding signal (z-score),[4],-0.44
same,glycan array binding signal (z-score),[5],-0.217
same,glycan array binding signal (z-score),[6],-0.447
same,glycan array binding signal (z-score),[7],-0.286
same,glycan array binding signal (z-score),Neu5Ac(a2-3)Gal(b1-4)Glc,-0.399
same,glycan array binding signal (z-score),[8],-0.409
same,glycan array binding signal (z-score),[9],-0.012
same,glycan array binding signal (z-score),[10],-0.377
same,glycan array binding signal (z-score),[11],-0.384
same,glycan array binding signal (z-score),[12],-0.421
same,glycan array binding signal (z-score),[13],-0.33
same,glycan array binding signal (z-score),[14],-0.416
same,glycan array binding signal (z-score),[15],-0.415
same,glycan array binding signal (z-score),[16],-0.33
same,glycan array binding signal (z-score),[17],-0.421
same,glycan array binding signal (z-score),[18],-0.415
same,glycan array binding signal (z-score),[19],-0.374
same,glycan array binding signal (z-score),[20],-0.425
same,glycan array binding signal (z-score),[21],-0.353
same,glycan array binding signal (z-score),[22],-0.378
same,glycan array binding signal (z-score),[23],-0.19
same,glycan array binding signal (z-score),[24],-0.285
same,glycan array binding signal (z-score),[25],-0.299
same,glycan array binding signal (z-score),[26],-0.378
same,glycan array binding signal (z-score),[27],-0.429
same,glycan array binding signal (z-score),[28],-0.327
same,glycan array binding signal (z-score),[29],-0.377
same,glycan array binding signal (z-score),[30],-0.299
same,glycan array binding signal (z-score),[31],-0.386
same,glycan array binding signal (z-score),[32],-0.378
same,glycan array binding signal (z-score),[33],-0.398
same,glycan array binding signal (z-score),[34],-0.397
same,glycan array binding signal (z-score),[35],-0.32
same,glycan array binding signal (z-score),[36],-0.399
same,glycan array binding signal (z-score),[37],-0.264
same,glycan array binding signal (z-score),[38],-0.374
same,glycan array binding signal (z-score),[39],-0.028
same,glycan array binding signal (z-score),[40],4.53
same,glycan array binding signal (z-score),[41],1.28
same,glycan array binding signal (z-score),[42],-0.369
same,glycan array binding signal (z-score),[43],-0.391
same,glycan array binding signal (z-score),[44],-0.415
